# Results reported in publication PMC4336329 (PLoS ONE, 2015).
# Out of some 310,000 compounds screened, about 2,200 (0.71%) showed an effect of 50% or more. The effect is printed as a negative number. Some of the results follow.
# Target: human ether-à-go-go-related gene (hERG) potassium channel (human, UniProt Q12809)
# Experiment: primary screen, population patch clamp on CHO cells stably expressing hERG
# Chain of human ether-à-go-go-related gene (hERG) potassium channel (Q12809 whole entry, looked up): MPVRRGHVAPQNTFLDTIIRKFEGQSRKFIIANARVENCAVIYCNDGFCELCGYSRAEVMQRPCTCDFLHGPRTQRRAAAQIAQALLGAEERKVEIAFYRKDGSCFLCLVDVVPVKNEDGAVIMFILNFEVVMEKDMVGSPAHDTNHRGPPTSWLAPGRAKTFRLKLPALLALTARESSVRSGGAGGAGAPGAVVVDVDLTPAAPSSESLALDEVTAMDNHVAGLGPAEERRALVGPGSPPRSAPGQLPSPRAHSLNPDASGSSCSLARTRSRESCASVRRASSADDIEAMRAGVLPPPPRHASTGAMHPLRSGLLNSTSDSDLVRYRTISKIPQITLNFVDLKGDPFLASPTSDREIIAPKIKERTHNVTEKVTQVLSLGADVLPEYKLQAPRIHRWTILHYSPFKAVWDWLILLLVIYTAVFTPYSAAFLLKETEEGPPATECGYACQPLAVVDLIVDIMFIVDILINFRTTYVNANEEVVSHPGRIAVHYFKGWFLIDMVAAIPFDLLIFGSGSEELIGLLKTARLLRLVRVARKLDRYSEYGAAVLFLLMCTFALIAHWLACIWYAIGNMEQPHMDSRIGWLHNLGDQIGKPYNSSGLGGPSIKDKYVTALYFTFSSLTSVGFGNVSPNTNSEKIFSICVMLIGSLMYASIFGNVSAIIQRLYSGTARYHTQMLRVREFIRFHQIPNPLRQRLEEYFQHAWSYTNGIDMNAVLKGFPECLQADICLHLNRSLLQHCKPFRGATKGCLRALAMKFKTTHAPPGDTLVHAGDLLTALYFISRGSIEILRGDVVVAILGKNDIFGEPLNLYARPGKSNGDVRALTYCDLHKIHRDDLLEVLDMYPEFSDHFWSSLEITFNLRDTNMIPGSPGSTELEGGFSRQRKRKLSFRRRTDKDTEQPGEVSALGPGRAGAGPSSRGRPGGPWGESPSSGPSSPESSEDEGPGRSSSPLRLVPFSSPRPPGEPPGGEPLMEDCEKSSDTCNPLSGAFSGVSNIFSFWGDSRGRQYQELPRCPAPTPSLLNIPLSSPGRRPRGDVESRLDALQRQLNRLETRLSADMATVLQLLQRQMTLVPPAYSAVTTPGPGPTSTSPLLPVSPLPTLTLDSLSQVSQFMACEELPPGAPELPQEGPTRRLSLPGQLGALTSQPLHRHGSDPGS
row,SMILES,"hERG current change (%, negative = inhibition) at 1uM"
1,Cc1cccc(-n2nnc3c(=O)n(CC(=O)Nc4cc(C)on4)cnc32)c1,11.9%
2,CC(C)[C@H](NC(=O)NCc1cccs1)C(=O)O,18.5%
3,COC(=O)c1ccc(NC(=O)Cn2nc(C)cc2C)cc1,17.4%
4,CCc1ccc(NC(=O)CSc2nncn2-c2cccnc2)cc1,12.3%
5,CCCCn1c(N)c(N(CCC(C)C)C(=O)C2CCN(C(=O)c3ccccc3C)CC2)c(=O)[nH]c1=O,6.03%
6,O=C(CCCc1ccccc1)Nc1cccnc1,-1.21%
7,CC(=O)Nc1ccc(CN2CCN(c3cccc(C(F)(F)F)c3)CC2)cc1,-19.1%
8,CC(C)(C)c1cc(-c2ccccc2)no1,6.58%
9,COc1ccc(CC(=O)Nc2ccc(S(=O)(=O)N3CCC(C)CC3)cc2)c(OC)c1,10.6%
10,O=S(=O)(NCc1cccnc1)c1ccc(Cl)c(Cl)c1Cl,-1.91%
11,O=C(O)/C=C/c1ccc(Oc2ncccn2)cc1,6.9%
12,CC(C)CCNC(=O)c1ccc2c(c1)ncn2C1CCCCC1,-15.6%
13,O=C(Nc1c(F)cccc1F)c1ccc(-n2cncn2)nc1,8.51%
14,C/C(=N\Nc1nc(-c2ccccc2)cs1)c1cccs1,12.7%
15,O=C(N/N=C/c1cc([N+](=O)[O-])ccc1O)c1cccc2ccccc12,16.9%
16,O=C1Nc2c(c(=O)[nH]c(=O)n2-c2ccccc2F)C(C(F)(F)F)(C(F)(F)F)N1,16.4%
17,Cc1cc(OC(C)C(=O)NCCCN2CCOCC2)c2c(C)cc(=O)oc2c1 (stereo not drawn),9.56%
18,COc1ccc(-c2noc(CSc3ccccc3)n2)cc1OC,8.02%
19,CCCCN(C(=O)COC(=O)c1nc2nc(C)cc(C)n2n1)C1CCS(=O)(=O)C1 (stereo not drawn),2.88%
20,N#CC1(NC(=O)COC(=O)c2cc([N+](=O)[O-])ccc2N2CCOCC2)CCCCC1,-23.5%
21,COc1ccc(OC)c(NC(=O)C(=O)/C=C(\O)c2cc(OC)ccc2OC)c1,-13.2%

row,SMILES,"hERG current change (%, negative = inhibition) at 1uM"
1,Cc1nc(NC(=O)c2ccccc2)sc1-c1csc(Nc2ccc(F)cc2)n1,19.2%
2,COc1ccc(S(=O)(=O)NCc2ccc(C)cc2)cc1,0.216%
3,O=C(COc1ccc2ccc(=O)oc2c1)NC(Cc1ccc(Cl)cc1)C(=O)O (stereo not drawn),9.25%
4,Cc1cc(CN2CCCC(N3CCc4ccccc4C3)C2)cc(C)c1O (stereo not drawn),-0.377%
5,CCCOC(=O)c1ccc2c(c1)C(=O)N(c1ccccc1)C2=O,11.8%
6,CS(=O)(=O)N1CCN(CC(=O)NC2CCCC2)CC1,1.26%
7,CC(C)c1ccc(NC(=O)NN2CCOCC2)cc1,6.76%
8,COc1ccc(NC(=O)c2ccc3c(SCC(=O)O)c4c(nc3c2)CCCC4)c(OC)c1,10.4%
9,Cc1ccc(CNC(=O)C23CN(Cc4ccccc4)CC2C(c2ccc([N+](=O)[O-])cc2)=NO3)o1 (stereo not drawn),-17.4%
10,CN1CCN(c2ccc(NC(=O)c3ccc4c(c3)OCCO4)cc2)CC1,-3.32%
11,COc1cccc(CNC(=O)C2CCN(c3nn4c(=O)cc(C)nc4s3)CC2)c1,15.8%
12,COc1ccc(/C=C2\SC(=O)N(CCNC(=O)Cc3coc4cc(C)ccc34)C2=O)cc1OC,9.96%
13,CCOc1ccc(N(C(=O)c2snc(C(N)=O)c2N)C(C(=O)NCC2CCCO2)c2ccco2)cc1 (stereo not drawn),11.4%
14,CCN(CC)CC(O)COC(c1ccccc1)c1ccccc1 (stereo not drawn),-33.2%
15,Cc1[nH]c(=O)[nH]c(=O)c1NC(=O)c1sc2nc3c(C)cccc3cc2c1N,17.8%
16,COc1cc2c(cc1OC)C(/C(C#N)=N\O)=NC(C)(C)C2,10.3%
17,N#C/C(C(=O)NCc1ccccc1)=C1/N=C(NC(=O)c2cccs2)c2ccccc21,7.12%
18,COc1ccc(C2C(C(C)=O)=C(O)C(=O)N2CCCn2ccnc2)cc1OC (stereo not drawn),3.06%
19,O=S(=O)(NCc1cn2ccsc2n1)c1ccc2c(c1)OCCO2,9.86%
20,O=C(CN(c1ccc(Cl)c(C(F)(F)F)c1)S(=O)(=O)c1ccccc1)N1CCOCC1,-0.447%
21,CCOC(=O)N1CCN(C(=O)CCCn2nc(C)c3sc4ccccc4c3c2=O)CC1,-9.58%

row,SMILES,"hERG current change (%, negative = inhibition) at 1uM"
1,COCCN(C(=O)Nc1ccccc1)c1ccccc1C,12.5%
2,COc1ccccc1CNC(=O)C(=O)NCC1CCCO1 (stereo not drawn),2.75%
3,CC(C)(C)c1ccc(C(=O)NCC(=O)OCC(=O)Nc2ccc3c(c2)OCCO3)cc1,19.1%
4,Cn1cccc1/C=C1\SC(=S)N(NC(=O)c2cccc(Cl)c2)C1=O,13.2%
5,Cc1nnc2ccc(-c3cccc(NS(=O)(=O)c4ccccc4Cl)c3)nn12,-1.39%
6,CC(NC(=O)COc1ccc(/C=N/NS(=O)(=O)c2ccccc2)cc1)c1ccccc1 (stereo not drawn),12.4%
7,C/C(=N\N1C(=O)CSC1=S)c1ccc(Br)cc1,1.48%
8,Oc1ccc(/C=N/N(Cc2ccccc2)c2ccccc2)cc1,25.8%
9,Cc1ccc(OCC(=O)N/N=C\c2c(C)[nH]n(-c3ccccc3)c2=O)c([N+](=O)[O-])c1,11.9%
10,O=C(CSc1ccccc1C(=O)O)c1ccc([N+](=O)[O-])cc1,11.1%
11,CCCCn1c(N)c(N(CC(C)C)C(=O)c2cc(-c3ccc(F)cc3)nc3ccccc23)c(=O)[nH]c1=O,2.37%
12,O=C(NC(=O)c1ccccc1)Nc1ccccn1,15.3%
13,Cc1cc(=O)oc2cc(OCC(=O)NCCc3ccccc3)ccc12,12.7%
14,CCOC(=O)CN1C(=O)S/C(=C/c2ccc(C)o2)C1=O,-33.7%
15,CC12CN3CC(C)(CN(C1)C3c1cccnc1)C2=O (stereo not drawn),5.77%
16,O=C(CN1CCN(S(=O)(=O)c2ccc(Br)cc2)CC1)N/N=C/c1cc([N+](=O)[O-])ccc1Cl,1.52%
17,COc1ccccc1-n1c(CNC(=O)c2ccco2)nnc1SCC(=O)Nc1nccs1,10.4%
18,COC(=O)c1cc(S(=O)(=O)N2CCN(c3ccc(F)cc3)CC2)cn1C,11.6%
19,Cc1cc([N+](=O)[O-])c(N2CCC[C@@H]2C(=O)O)c([N+](=O)[O-])c1,16.9%
20,COc1ccccc1NC(=O)CSc1nnc(CSc2nc(C)cc(C)n2)o1,15.8%
21,COc1ccc(OCC(=O)N2CCCC2=O)c([N+](=O)[O-])c1,12.4%

row,SMILES,"hERG current change (%, negative = inhibition) at 1uM"
1,Cc1ccc(CNC(=O)c2ccc(N3CCC4(CC3)CC(c3ccccc3)=NO4)c(NC(=O)c3ccccc3)c2)cc1,13.5%
2,CC(C)=NNc1nc2c(c(=O)[nH]c(=O)n2C)n1CCCc1ccccc1,14%
3,O=C(Nc1ccc(S(=O)(=O)Nc2nccs2)cc1)c1nn(-c2ccccc2)ccc1=O,14.8%
4,CCN1C[C@@]2(COC)C3[C@@H](OC)[C@H]4[C@@H]1[C@@]3(C1C[C@H]3[C@H](OC(C)=O)C1[C@]4(OC(C)=O)C[C@H]3OC)[C@@H](OC)C[C@H]2OC(C)=O (stereo partly drawn),1.04%
5,CN(c1ccc(C(=O)N/N=C/c2cccc([N+](=O)[O-])c2)cc1)S(=O)(=O)c1ccccc1,16%
6,COC(=O)CNC(=O)C1CCC(CNS(=O)(=O)c2cccc3nsnc23)CC1 (stereo not drawn),16.6%
7,N#Cc1c(N)nc2c(c1-c1ccco1)CCCCC2,12.2%
8,CCC1(CC)C(=O)N(C)C(=O)NC1=Nc1ccc(OC)cc1,12%
9,OC12CCCCC1C(c1ccc3c(c1)OCO3)N(Cc1ccccc1F)CC2 (stereo not drawn),1.69%
10,COC(=O)C1C(=O)c2c([nH]c(C(=O)OC3CCCCCC3)c2C)CC1C (stereo not drawn),9.78%
11,O=C1c2ccccc2NC(c2cn[nH]c2-c2ccccc2)N1O (stereo not drawn),5.48%
12,Cc1ccc(C23CC4CC(CC(C(=O)NC(C)C(=O)O)(C4)C2)C3)cc1 (stereo not drawn),16.9%
13,N#Cc1cc(-c2ccccc2)nnc1Sc1ccccc1,15.2%
14,COc1cccc(C(=O)O/N=C/c2ccc(Sc3ccc(C)cc3)nc2)c1,16.5%
15,C=CCN1C=C2C(=O)C(C)(OC(=O)c3ccc(OC)cc3)C(=O)C(c3ccco3)=C2C=C1CCCC (stereo not drawn),16.4%
16,COS(=O)(=O)[O-].Cn1nnc(CC[N+](C)(C)C)n1,15.3%
17,Cc1cc2nc(-c3cccnc3SCC(=O)NC(C)C)[nH]c2cc1C,7.83%
18,Clc1ccc(-c2cc(CSc3ccccc3)on2)cc1,10.7%
19,O=C(O)c1cc([N+](=O)[O-])cc2c1C=Cc1ccccc1O2,19.6%
20,c1coc(CSc2ncnc3c2oc2ccccc23)c1,12.4%
21,Cc1ccc(-n2c(SCC(=O)N3CCC(C(=O)O)CC3)nc3ccccc3c2=O)cc1C,19.2%
